According to PubChem BioAssay AID485344 (National Center for Advancing Translational Sciences (NCATS), 2010):
The whole screen tested about 340,000 compounds, of which about 6,900 (2%) were called active. Rule as the data show it: active = inhibition above about 30%; inactive = below that, where a call was filed. The list shows a part of the results, in another mix than the full data. The source gives no active or inactive call for entries shown without one.

Each compound was assayed against D(2) dopamine receptor (Homo sapiens) (UniProt P14416) (assay: HTS Assay for Allosteric Antagonists of the Human D2 Dopamine Receptor: Primary Screen for Antagonists). Conditions: HEK293 TREx D2 cells, calcium flux, dopamine EC80; at 10 µM; stronger effect = higher value.
Procedure, shortened: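 Tetracycline-induced HEK293 TREx cells expressing D2 receptor forced-coupled to calcium signalling, loaded with no-wash calcium dye. Compounds added and calcium flux read 180 s, then dopamine added at EC80 and read a further 180 s.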
Also: 0% is about no effect.

Chain of UniProt P14416 (P14416 whole entry, looked up): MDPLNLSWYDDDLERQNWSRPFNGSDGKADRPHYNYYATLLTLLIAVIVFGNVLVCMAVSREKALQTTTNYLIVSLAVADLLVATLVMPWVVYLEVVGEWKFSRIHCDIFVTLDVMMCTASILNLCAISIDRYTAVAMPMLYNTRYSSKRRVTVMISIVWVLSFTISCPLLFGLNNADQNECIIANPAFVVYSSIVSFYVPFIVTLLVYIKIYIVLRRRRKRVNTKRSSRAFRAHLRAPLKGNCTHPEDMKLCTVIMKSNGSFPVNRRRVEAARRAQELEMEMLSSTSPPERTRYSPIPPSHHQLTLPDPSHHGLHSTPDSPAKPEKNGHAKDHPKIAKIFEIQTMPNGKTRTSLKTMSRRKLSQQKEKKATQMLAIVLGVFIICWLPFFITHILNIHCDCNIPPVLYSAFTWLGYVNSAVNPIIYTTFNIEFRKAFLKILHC

First: COc1ccc(C(=O)N(Cc2ccco2)Cc2ccc(C)o2)cc1
Second: COc1ccc(-c2nc(CS(=O)CC(=O)NCCc3ccc(Cl)cc3)c(C)o2)cc1OC (stereo unspecified)
The inhibition of the first is higher: 17.7% for the first, -0.0575% for the second.

Going from `COc1cc(NS(=O)(=O)c2ccc(NC(=O)c3ccc(Cl)cc3Cl)cc2)nc(OC)n1` to `Cc1ccc2c(CC(=O)Nc3ccc(S(=O)(=O)N4CCCCC4)cc3)coc2c1C`, the inhibition rises from -0.217% to 1.2%.

First: CNC(=O)c1c(NC(=O)/C=C/c2ccccc2)sc2c1CCC2
Second: CCOc1ccc(/C=C/C(=O)Nc2ccc3nc(N(CC)CC)cc(C)c3c2)cc1OC
The inhibition of the first is lower: -9.99% for the first, 4.57% for the second.

First: COCCCNC(=O)c1cnc2sc(N3CCCCC3)nn2c1=O
Second: CCCS(=O)(=O)N1CC(=O)N(c2ccc(C)c(Cl)c2)C(C)(C(=O)NC2CCCCCC2)C1 (stereo unspecified)
The inhibition of the first is higher: 7.91% for the first, 2.45% for the second.

Going from `Cc1ccc2nc(-c3ccc(NC(=O)COc4ccc(Br)cc4Br)cc3)sc2c1` to `Cc1ccc(CS(=O)(=O)c2ncc(Cl)c(C(=O)Nc3nnc(C(C)C)s3)n2)cc1`, the inhibition falls from 13.2% to 3.61%.

Going from `COc1cc(CN(C(=O)c2ccccc2F)C2CCS(=O)(=O)C2)cc(OC)c1OC` (stereo unspecified) to `CCC(=O)N1c2ccc(S(=O)(=O)CCC(=O)Nc3ccc(OC)cc3OC)cc2CC1C` (stereo unspecified), the inhibition rises from -15.1% to 16.3%.

Going from `Cc1cccc(N2CCN(C(=O)Cn3c(-c4cccs4)cc4ccccc43)CC2)c1C` to `Oc1c(C(c2ccc(F)cc2)N2CCN(Cc3ccccc3)CC2)sc2nc(-c3ccco3)nn12` (stereo unspecified), the inhibition rises from 6.68% to 8.48%.

First: CN1C(=O)C2(c3ccccc31)N(c1cccc(C(F)(F)F)c1)C(=O)CS2(=O)=O (stereo unspecified)
Second: CCc1ccc(C2c3c(-c4ccccc4O)n[nH]c3C(=O)N2Cc2cccnc2)cc1 (stereo unspecified)
The inhibition of the first is lower: 7.57% for the first, 15.3% for the second.

Compared with `CCN1CCN(c2ncc3c(n2)CCN(Cc2ccccc2C)C3)CC1`, `O=C(CCNS(=O)(=O)c1ccc2c(c1)CCN2C(=O)C1CC1)N1CCN(c2cccc(Cl)c2)CC1` is lower in inhibition: 2.93% for the first, -7.44% for the second.

Compared with `CCC(=O)N1CCc2cc(CNS(=O)(=O)c3ccc(CC(C)C)cc3)ccc21`, `CC(C)CCNC(=O)C1CCN(C(=O)c2cc3sccc3n2Cc2ccc(Cl)cc2)CC1` is lower in inhibition: 3.04% for the first, -14.6% for the second.

First: CCc1ccc(-n2nc(CO)c(C(=O)NC)n2)cc1
Second: Cc1ccc(Cl)cc1-n1nnc(-c2nc(-c3ccc4c(c3)OCO4)no2)c1C
The inhibition of the first is lower: -6.68% for the first, -4.03% for the second.

For `CCOC(=O)c1ccc(-c2ccc3[nH]c4ccccc4c(=O)c3c2)cc1F`, the inhibition was active: 30.9%.
With `Cc1cccc(Nc2nc(N)nc(CN3CCN(c4ccccc4)CC3)n2)c1` the inhibition was active: 50.8%.
In the case of `O=C(NCCCN1CCN(c2ccccc2F)CC1)C1CCC(=O)N1C1CCCCC1` (stereo unspecified), the inhibition is reported as active: 55.7%.
In the case of `COc1ccc(N(CC(=O)Nc2cccnc2)S(=O)(=O)c2ccccc2)cc1Cl`, the inhibition is reported as active: 31.1%.
